# Test results published in the BET-seq Pho4 binding data (Le et al. 2018).
# This is one part of the list. These are noisy estimates, calculated here from bound and input reads.
# Target: T1, Pho4 (S. cerevisiae) (UniProt P07270)
# T1 sequence: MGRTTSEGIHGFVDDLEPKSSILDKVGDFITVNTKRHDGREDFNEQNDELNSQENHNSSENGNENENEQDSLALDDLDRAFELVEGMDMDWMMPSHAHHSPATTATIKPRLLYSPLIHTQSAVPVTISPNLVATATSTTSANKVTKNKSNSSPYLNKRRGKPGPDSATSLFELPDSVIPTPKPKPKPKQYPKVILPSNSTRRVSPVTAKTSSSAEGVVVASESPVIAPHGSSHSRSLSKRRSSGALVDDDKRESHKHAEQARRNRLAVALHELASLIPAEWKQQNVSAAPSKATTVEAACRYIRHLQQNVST
# Test: relative binding free energy (BET-seq); higher = weaker binding
# Conditions: reference: library average
row,Sequence,relative binding free energy
1,GGGCACACGTGAGGCG,0.36 kcal/mol
2,TCGTCCACGTGTTGGT,0.07 kcal/mol
3,CATGTCACGTGAAGTT,0.43 kcal/mol
4,TTAAACACGTGTTATA,-0.08 kcal/mol
5,AATGGCACGTGGGTAT,-0.22 kcal/mol
6,GGTTTCACGTGAAGAT,0.53 kcal/mol
7,TTATTCACGTGAGTAT,0.36 kcal/mol
8,GAGTGCACGTGGAGGC,-0.02 kcal/mol
9,GGATCCACGTGGTTGG,-0.09 kcal/mol
10,GTCTTCACGTGGGAGG,0.26 kcal/mol
11,GGCTGCACGTGCGGGT,-0.09 kcal/mol
12,AATTTCACGTGGTAAG,0.19 kcal/mol
13,GTTTTCACGTGACAGT,0.36 kcal/mol
14,CAAGGCACGTGCTGGG,-0.05 kcal/mol
15,TACGCCACGTGTGTGG,-0.07 kcal/mol
16,GAGGACACGTGATTTA,0.18 kcal/mol
17,ACGGGCACGTGTATAT,-0.06 kcal/mol
18,TAAGGCACGTGGGTGC,-0.25 kcal/mol
19,GGTTGCACGTGGTGGG,0.09 kcal/mol
20,ATTTTCACGTGTTGGG,0.24 kcal/mol
21,GATGTCACGTGTGTCG,0.21 kcal/mol
22,TACATCACGTGGAGGG,0.13 kcal/mol
23,TGCATCACGTGCGGGT,-0.07 kcal/mol

row,Sequence,relative binding free energy
1,TATTGCACGTGGAAAT,0.19 kcal/mol
2,GTAATCACGTGAATTG,0.2 kcal/mol
3,AAAGGCACGTGGATTG,-0.03 kcal/mol
4,GGGTGCACGTGAGGTG,0.21 kcal/mol
5,TTGAGCACGTGTGTAA,-0.08 kcal/mol
6,AGAAGCACGTGCGGTT,-0.05 kcal/mol
7,ATTTGCACGTGATATG,-0.07 kcal/mol
8,AGGGGCACGTGTATAA,-0.13 kcal/mol
9,GTAGTCACGTGAGTCT,0.28 kcal/mol
10,TGCGGCACGTGGGGCC,-0.27 kcal/mol
11,GGTTACACGTGTTAGA,0.2 kcal/mol
12,ACTTGCACGTGGGCGT,-0.16 kcal/mol
13,TATGTCACGTGTGGAT,0.28 kcal/mol
14,GTGGACACGTGGCTTT,0 kcal/mol
15,GTGTTCACGTGCTGGA,0.06 kcal/mol
16,TTTTGCACGTGTAATT,0.02 kcal/mol
17,AGGAGCACGTGATATT,0.13 kcal/mol
18,GTCGTCACGTGAGGTC,0.4 kcal/mol
19,CGCGGCACGTGTTGGG,-0.05 kcal/mol
20,GTCTTCACGTGGGGCA,0.16 kcal/mol
21,TTTGTCACGTGGTACA,0.03 kcal/mol
22,GGATACACGTGCTGGG,-0.08 kcal/mol
23,CGGAGCACGTGATTTG,0.08 kcal/mol

row,Sequence,relative binding free energy
1,GCGGGCACGTGATTTT,0.02 kcal/mol
2,ATTATCACGTGGTTTA,0.01 kcal/mol
3,GAGGGCACGTGTTTGG,0.06 kcal/mol
4,GTGGGCACGTGTGTAG,-0.03 kcal/mol
5,AGTTACACGTGGTGGC,0.03 kcal/mol
6,CAGTGCACGTGTTTAT,0.04 kcal/mol
7,GCGGACACGTGTTGGA,0.09 kcal/mol
8,GGTGTCACGTGCGTTG,-0.02 kcal/mol
9,TAATTCACGTGGGTAT,0.23 kcal/mol
10,GTTAGCACGTGGGGGG,-0.08 kcal/mol
11,GTGTGCACGTGGGCGA,-0.15 kcal/mol
12,TTGGTCACGTGATAGC,0.38 kcal/mol
13,TGGTCCACGTGGTCTT,0.03 kcal/mol
14,TGGGACACGTGGGCTC,-0.2 kcal/mol
15,ATGTGCACGTGGATCG,-0.06 kcal/mol
16,TCATGCACGTGGTGGC,-0.17 kcal/mol
17,GGTGCCACGTGGGTGT,-0.15 kcal/mol
18,GGGATCACGTGGGGGG,0.09 kcal/mol
19,TCTGGCACGTGCAGTT,-0.02 kcal/mol
20,TGGTGCACGTGGTTTT,0.05 kcal/mol
21,ATATTCACGTGATGGT,0.39 kcal/mol
22,TCGGTCACGTGCGGTT,0.2 kcal/mol
23,CTTATCACGTGAGTTG,0.32 kcal/mol

row,Sequence,relative binding free energy
1,AGCGGCACGTGAGTTT,-0.02 kcal/mol
2,TCTGGCACGTGTAAGT,0.16 kcal/mol
3,GTTATCACGTGTTGAC,0.39 kcal/mol
4,GATAGCACGTGGTGGG,-0.06 kcal/mol
5,TTTTGCACGTGATCCT,0.13 kcal/mol
6,TCGATCACGTGGTGGT,0.18 kcal/mol
7,GGCATCACGTGGGGTA,0.08 kcal/mol
8,AGTTACACGTGATGTG,0.11 kcal/mol
9,CGAGTCACGTGGATGT,0.16 kcal/mol
10,TTATTCACGTGGGAGA,0.21 kcal/mol
11,ACTGGCACGTGCAGTG,-0.04 kcal/mol
12,TTACTCACGTGGTCGG,0.14 kcal/mol
13,AGGTCCACGTGTGTAT,0.09 kcal/mol
14,GGGAACACGTGGAGAT,0.14 kcal/mol
15,AATTACACGTGGAATA,0.37 kcal/mol
16,TGTTTCACGTGAGATC,0.37 kcal/mol
17,AATCTCACGTGGAGGG,0.1 kcal/mol
18,TAAGCCACGTGGGGTT,-0.2 kcal/mol
19,ATATTCACGTGTTGAT,0.28 kcal/mol
20,TGCTTCACGTGCTGGT,0.29 kcal/mol
21,TTCTGCACGTGAGGTA,0.32 kcal/mol
22,GGCCGCACGTGTTGTT,-0.02 kcal/mol
23,GGAGCCACGTGTGGCG,0.07 kcal/mol

row,Sequence,relative binding free energy
1,CGTTTCACGTGTTGAA,0.24 kcal/mol
2,ATGTGCACGTGGACGG,-0.26 kcal/mol
3,GGGTGCACGTGGGATG,-0.13 kcal/mol
4,GGTAGCACGTGGATGT,-0.08 kcal/mol
5,ATGAACACGTGGCGTT,-0.06 kcal/mol
6,TGTGACACGTGGATGA,0.02 kcal/mol
7,TTGAGCACGTGCGGCG,-0.05 kcal/mol
8,GTGGTCACGTGCGTGC,-0.06 kcal/mol
9,TTTTTCACGTGATCGA,0.31 kcal/mol
10,AGTGCCACGTGGGAGG,-0.16 kcal/mol
11,GTTTTCACGTGTTGCT,0.3 kcal/mol
12,AGAAGCACGTGTTTAT,-0.15 kcal/mol
13,TATATCACGTGATATA,0.19 kcal/mol
14,AGTATCACGTGTTTAA,0.16 kcal/mol
15,TGTTGCACGTGGAGCT,0.07 kcal/mol
16,TGGGACACGTGAATTA,0.2 kcal/mol
17,GTAATCACGTGGATGT,0.14 kcal/mol
18,TTTTCCACGTGGGTTG,-0.03 kcal/mol
19,AGACGCACGTGGGTAG,-0.27 kcal/mol
20,TGATCCACGTGGGCGG,-0.13 kcal/mol
21,CCTTGCACGTGGGGTT,-0.23 kcal/mol
22,AGGTGCACGTGGACTT,-0.1 kcal/mol
23,TGCGTCACGTGTTTGT,-0.02 kcal/mol
